Measured values: PubChem BioAssay AID540317 (National Center for Advancing Translational Sciences (NCATS), 2011)
The campaign covered roughly 390,000 compounds. About 2,200 (0.56%) were called active. Inconclusive means that the source gave no clear call. Such entries were picked first, then a sample of the others. Calls come from the whole dose curve; as a rule, active = well fitted inhibition curve with a large enough effect; inconclusive = small, poorly fitted or top-dose-only effect; inactive = no such curve, though single readings can be large or run the other way. Potencies beside an inconclusive call are fits to weak or partial responses and may not hold up.

These molecules were tested against Chromobox protein homolog 1 (Homo sapiens) (UniProt P83916) (assay: HTS for Inhibitors of HP1-beta Chromodomain Interactions with Methylated Histone Tails). Conditions: AlphaScreen HP1-beta / biotin-H3K9me3 peptide binding; series mostly up to 114 µM; activity change, negative = inhibition: at the top concentration.
In short: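 HP1-beta protein (50 nM final) preincubated 30 min at room temperature with biotinylated H3(1-18)K9me3 peptide (50 nM) in PBS pH 7.4, 0.01% Tween-20, then compound added for 30 min. AlphaScreen streptavidin donor/nickel chelate acceptor beads (10 ug/mL final), 30 min dark, luminescence read.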
Note: nearly all actives have a fitted effect of over 70% in size.
Potency is the fitted concentration of half-maximal effect; tags give direction and shape of the fitted curve.

UniProt P83916, sequence (P83916 whole entry, looked up): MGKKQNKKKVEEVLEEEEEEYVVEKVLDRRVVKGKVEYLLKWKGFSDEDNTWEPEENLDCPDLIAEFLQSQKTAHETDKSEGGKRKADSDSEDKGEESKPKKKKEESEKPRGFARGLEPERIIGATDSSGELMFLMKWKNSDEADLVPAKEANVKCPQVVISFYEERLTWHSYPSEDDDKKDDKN

Row | Compound | Potency | activity change, negative = inhibition
1 | CCN1/C(=C2\C(=O)N(C)C(=S)N2C)C=Cc2ccccc21 | inconclusive: 44.7 µM [inhibitor, partial curve] | 
2 | COc1ccc2[nH]c(C)c(CCNC(=S)Nc3cccc(C)c3C)c2c1 | inconclusive: 39.8 µM [inhibitor, partial curve] | 
3 | O=C1CCCN1CCCNCC(=O)N1c2ccccc2Sc2ccccc21 | inconclusive: 56.2 µM [inhibitor, partial curve] | 
4 | Nc1ccc(N=Nc2ccccc2)cc1[N+](=O)[O-] | inconclusive: 25.1 µM [inhibitor, partial curve] | 
5 | CCc1cc(N2CCOCC2)cc2c1[nH]c1ccccc12 | inconclusive: 50.1 µM [inhibitor, partial curve] | 
6 | CC1CC(C)CN(c2nc(NCc3ccco3)nc(N)c2[N+](=O)[O-])C1 (stereo not drawn) | inconclusive: 56.2 µM [inhibitor, single point] | 
7 | COc1ccc(N(CC(=O)Nc2ccccc2C)S(=O)(=O)c2ccccc2[N+](=O)[O-])c(OC)c1 | inconclusive: 6.31 µM [inhibitor, full curve, poor fit] | 
8 | O=c1c2ccccc2nnn1CSc1nnc(-c2cccs2)n1Cc1ccccc1 | inconclusive: 39.8 µM [inhibitor, single point] | 
9 | COCCCNCCCOc1ccc(Cl)cc1Br | inconclusive: 44.7 µM [inhibitor, partial curve] | 
10 | COC(=O)c1c(NC(=O)CCCOc2ccc(C)cc2)sc2c1C(C(=O)OC)CC2 (stereo not drawn) | inconclusive: 7.94 µM [inhibitor, full curve] | 
11 | CCOC(=O)c1[nH]c(=O)[nH]c1COC(=O)c1cc2ccccc2o1 | inconclusive: 50.1 µM [inhibitor, partial curve, poor fit] | 
12 | CCCOC(=O)C1=C(C)NC2=C(C(=O)CC(C)(C)C2)C1c1ccc(N(C)C)cc1 (stereo not drawn) | inconclusive: 70.8 µM [inhibitor, single point] | 
13 | CCOC(=O)/C=C(/C)N1N=C(c2ccc(OC)cc2)CC1c1cccc([N+](=O)[O-])c1 (stereo not drawn) | inconclusive: 39.8 µM [inhibitor, single point] | 
14 | Oc1c(C2=NCCNC(C(F)(F)F)=C2)ccc2ccccc12 | inconclusive: 44.7 µM [inhibitor, partial curve] | 
15 | N#Cc1nc(COc2ccccc2)oc1N1CCCCCC1 | inconclusive: 15.8 µM [inhibitor, full curve] | 
16 | O=C(CN1CCN(c2ncccn2)CC1)N(Cc1ccccc1)c1ccc(F)cc1 | inconclusive: 50.1 µM [inhibitor, partial curve] | 
17 | CC1(C)c2ssc(=S)c2-c2ccccc2N1C(=O)CSC1=NCCS1 | inconclusive: 17.8 µM [inhibitor, partial curve, poor fit] | 
18 | CCc1ccc(CN2CCN(C(=O)c3cccc(OC)c3OC)CC2)cc1 | inconclusive: 35.5 µM [inhibitor, partial curve, poor fit] | 
19 | Cn1sc(NC(=O)c2cccc(Cl)c2)nc1=O |  | inactive: 39.2%
20 | Cc1occc1C(=O)NCc1ccco1 |  | inactive: -3.19%
21 | CN1C(=O)c2ccccc2C(C(=O)O)C1c1cn(C)c2ccccc12 (stereo not drawn) | inconclusive: 22.4 µM [inhibitor, single point] | 
22 | CCC(C)(C)c1nnc(NC(=O)C2CCN(C(=O)c3ccco3)CC2)s1 | inconclusive: 56.2 µM [inhibitor, partial curve, poor fit] | 
23 | CSc1cccc(NC(=O)NNC(=O)C2CCN(S(=O)(=O)N(C)C)CC2)c1 |  | inactive: 35.1%

Row | Compound | Potency | activity change, negative = inhibition
24 | CCN(CC)C(=O)C1CCCN(C/C(C)=C/c2ccccc2)C1 (stereo not drawn) | inconclusive: 39.8 µM [inhibitor, partial curve] | 
25 | Nc1c(C(=O)NC2CC2)sc2nc3c(c(-c4ccco4)c12)CC/C3=C/c1ccco1 | active: 14.1 µM | 
26 | CCc1ccccc1NC(=O)CSc1ncc2c(n1)-c1ccccc1N(Cc1ccc(C)cc1)S2(=O)=O |  | inactive: 17.2%
27 | O=C1C=C(N(CCO)Cc2ccccc2)c2ccccc2C1=O | inconclusive: 79.4 µM [inhibitor, single point] | 
28 | Cn1cccc1C(=O)NC(=O)COC(=O)c1cc(S(=O)(=O)N2CCCCC2)ccc1Cl |  | inactive: -5.48%
29 | CCN(Cc1ccccc1)C(=O)CCNS(=O)(=O)c1ccc2c(c1)CC(C)N2C(C)=O (stereo not drawn) | inactive | 
30 | CCOC(=O)C1=C(C)C2C3C(=O)N(c4cc(C)ccc4C)C(=O)C3C1(C)C1C(=O)N(c3cc(C)ccc3C)C(=O)C21 (stereo not drawn) | inconclusive: 25.1 µM [inhibitor, single point] | 
31 | COc1ccc(C(=O)Nc2cccc(C)n2)cc1S(=O)(=O)N1CCCc2ccccc21 |  | inactive: 8.93%
32 | O=C(CN1C(=O)S/C(=C\c2ccc(O)c([N+](=O)[O-])c2)C1=O)Nc1ccc(N2CCOCC2)cc1 | inconclusive: 89.1 µM [inhibitor, single point] | 
33 | O=C(Nc1ccc(NC(=O)c2cccs2)cc1)c1ccc(Br)cc1 |  | inactive: 21.6%
34 | COc1ccc(COC(=O)C2=C(C)NC(=O)NC2c2ccc(F)cc2)cc1 (stereo not drawn) |  | inactive: 11.9%
35 | CCOC(=O)Cn1c(=O)cc(-c2ccccc2)c2c(C)nn(C)c21 |  | inactive: 2.32%
36 | COc1ccccc1N1CCN(CC(=O)Nc2c(C)n(C)n(-c3ccccc3)c2=O)CC1 | inconclusive: 14.1 µM [inhibitor, full curve, poor fit] | 
37 | O=C(c1ccc(N2CCCCC2)c([N+](=O)[O-])c1)N(Cc1ccccc1)c1ccccn1 | inconclusive: 56.2 µM [inhibitor, single point] | 
38 | CCN(CC)CCOc1ccc(/C(=C(\Cl)c2ccccc2)c2ccccc2)cc1 | inconclusive: 14.1 µM [inhibitor, partial curve, poor fit] | 
39 | CCC(=O)Nc1sc2c(c1C#N)CCC2 |  | inactive: -0.84%
40 | O=C(CN1CCCc2ccccc21)N/N=C/c1c(O)ccc2ccccc12 | inconclusive: 31.6 µM [inhibitor, partial curve, poor fit] | 
41 | CCOC(=O)C1CCN(C(=S)NC(=O)c2cccs2)CC1 | inconclusive: 70.8 µM [inhibitor, partial curve] | 
42 | COc1ccc(OCCCn2ccnc2)cc1 | active: 15.8 µM | 
43 | Cc1ccc(NC(=O)CN(C)C(=O)c2cc(-c3ccco3)nc3ccccc23)cc1 | active: 50.1 µM | 
44 | CC(C)COC(=O)c1ccc2c(c1O)C(=O)c1ccccc1C2=O | inconclusive: 3.55 µM [inhibitor, full curve, poor fit] | 
45 | Cc1ccccc1NS(=O)(=O)c1ccc(Br)s1 |  | inactive: 52.6%
46 | CCN(CC)CCNC(C(=O)Nc1cccc(C(C)=O)c1)c1ccccc1 (stereo not drawn) | inconclusive: 25.1 µM [inhibitor, partial curve, poor fit] | 

Row | Compound | Potency | activity change, negative = inhibition
47 | Cc1ccccc1N(C(=O)c1csnn1)C(C(=O)NC(C)(C)C)c1cccs1 (stereo not drawn) | inconclusive: 5.62 µM [inhibitor, full curve] | 
48 | COc1ccc(O)c(/C=N/NC(=O)c2c(C)nnn2-c2nonc2N)c1 |  | inactive: 16.9%
49 | CCN(CC)CCCNC(=O)/C=C/C(=O)O | inconclusive: 44.7 µM [inhibitor, partial curve] | 
50 | Cc1ccc(-c2onc3ccc(Br)cc23)cc1 | inconclusive: 89.1 µM [inhibitor, single point] | 
51 | COc1ccc(N=[N+]([O-])c2ccc(OC)cc2)cc1 | inconclusive: 89.1 µM [inhibitor, partial curve, poor fit] | 
52 | Oc1ccc(/C=N/N(Cc2ccccc2)c2ccccc2)c(O)c1O | inconclusive: 50.1 µM [inhibitor, partial curve] | 
53 | CNCc1nc2ccccc2[nH]1 |  | inactive: 65.6%
54 | COc1cc(C(c2c(C(=O)O)[nH]c3ccccc23)c2c(C(=O)O)[nH]c3ccccc23)ccc1OCc1ccccc1 | inconclusive: 39.8 µM [inhibitor, partial curve, poor fit] | 
55 | O=C(COc1ccccc1O)NNc1ccccc1 |  | inactive: 39.8%
56 | Cc1nc2ncccn2c1-c1csc(Nc2cccc(C(=O)O)c2)n1 | inconclusive: 79.4 µM [inhibitor, single point] | 
57 | CCOc1cc(CNCc2cc(OC)cc(OC)c2)ccc1OC | inconclusive: 79.4 µM [inhibitor, single point] | 
58 | CCOC(=O)N1CCN(CCCc2ccccc2)CC1 | inconclusive: 56.2 µM [inhibitor, partial curve, poor fit] | 
59 | COC(=O)Cc1csc(NC(=O)CSc2nnc3ccccn23)n1 | inconclusive: 7.08 µM [inhibitor, full curve] | 
60 | Clc1nssc1=Nc1ccc(Br)cc1 | active: 31.6 µM | 
61 | CCOc1c(Br)cc(/C=C2/SC(=O)N(CC(=O)N3CCCC3)C2=O)cc1OC |  | inactive: 38.6%
62 | CCC1Sc2ccc(S(=O)(=O)CCC(=O)Nc3ccc(C(=O)OC)cc3)cc2NC1=O (stereo not drawn) | inconclusive: 35.5 µM [inhibitor, partial curve] | 
63 | COC(=O)c1cccc(N(C(=O)c2ccco2)C(C(=O)NC2CCCC2)c2ccc(N3CCOCC3)cc2)c1 (stereo not drawn) |  | inactive: -10.3%
64 | Oc1ccccc1C(=S)N1CCN(c2cccc(Cl)c2)CC1 | inconclusive: 10 µM [inhibitor, full curve] | 
65 | COc1ccc(C2(C(=O)Nc3ccc(S(N)(=O)=O)cc3)CCCC2)cc1 | inconclusive: 44.7 µM [inhibitor, partial curve, poor fit] | 
66 | COc1ccc(S(=O)(=O)N2CCN(Cc3ccco3)CC2)cc1 | inconclusive: 50.1 µM [inhibitor, partial curve] | 
67 | CC(C)CC(=O)N1CCC(N(CCc2ccccc2)Cc2ccccc2)CC1 | inconclusive: 17.8 µM [inhibitor, partial curve, poor fit] | 
68 | CCCS(=O)(=O)c1ncc(Cl)c(C(=O)Nc2scc(-c3ccccc3)c2C(=O)OCC)n1 | inconclusive: 7.94 µM [inhibitor, partial curve] | 
